# This is one part of the list. At the low end of the ranking the order means little. The protein was read in a cell extract, so binding may be indirect.
# Biological target: T1, HNF4alpha2 (COS-7 nuclear extract) (UniProt P41235)
# T1 sequence: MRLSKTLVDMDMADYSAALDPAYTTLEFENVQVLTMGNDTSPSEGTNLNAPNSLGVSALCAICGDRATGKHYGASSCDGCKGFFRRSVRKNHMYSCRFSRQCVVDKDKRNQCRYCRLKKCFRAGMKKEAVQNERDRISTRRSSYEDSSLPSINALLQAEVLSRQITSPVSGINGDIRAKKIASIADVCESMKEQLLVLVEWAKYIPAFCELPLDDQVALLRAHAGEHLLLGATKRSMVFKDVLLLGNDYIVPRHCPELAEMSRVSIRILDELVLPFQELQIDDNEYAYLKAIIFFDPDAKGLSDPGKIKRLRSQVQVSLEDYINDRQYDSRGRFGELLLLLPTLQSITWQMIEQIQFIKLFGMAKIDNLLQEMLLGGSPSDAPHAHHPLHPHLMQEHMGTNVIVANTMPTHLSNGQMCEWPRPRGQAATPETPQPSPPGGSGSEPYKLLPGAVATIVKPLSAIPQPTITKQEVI
# Test: protein-binding microarray
# Conditions: COS-7 nuclear extract on double-stranded Agilent 4x180k PBM; binding buffer, salt, pH and temperature not given; high values mean tight binding; double strand, one strand shown; sequences stand for … in …GCCTAGGGAGATTAGAGTATCGGTCGA
row,Sequence,binding signal (log2 normalized intensity)
1,ACCTCCCCTTTGTTTAACTTACTATCTGAG,1.18
2,GTTCTAGTAAGGCCTTCAAATGATTGGATG,0.0454
3,GTCTACAGGTCAGACCTGTTTCAAAACTAC,-1.03
4,ACACTATCAGCTACTTCGGGACAAGAGGAA,-0.41
5,AGGCCAATTACTTACATGGGTTAGGAGGAT,0.353
6,CTTGTCTTATCAGCAGGGTCTTTTTGACCT,4.38
7,AAGGAAATGGACAACGGAAAGACAGAGGTG,-1.03
8,TCTCTGGCTGGTGGGCAAGTTATCTCGGGG,0.776
9,TGAATCTAATGCCACCATTGATCTAACAGG,-1.09
10,AGCCTCTTTATCTCTCTCTCTTTCTTCCCC,2.84
11,AATCAACTGCCCTCTGCCTTTCAGGCAGGA,-1.19
12,GCAATCTTCCAGTCCACAGTCCAGTGACTA,0.476
13,AATGGTCATTCTCTGTTGCATGGTTGACAT,1.89
14,AGAGAGACCGTCCCTGGGTACAACTTTATC,0.802
15,CAGGGAGTGCCCTTCCACTTAGGCTTGCAA,-1.1
16,CAAAGTGCATTGGAGGCCAGATGCCAACTG,-1.15
17,GCAAGGATCAGCCCCACACTCCTGGGCTGT,-1.16
18,AGGAGCCTCCAATCAGGACAGACTGGTTGA,-1.15
19,CAAGGGGAATGTGGATGCTGGAATGAGGGA,-1.09
20,CAGAAACAAAGGGGGAGGGAGATAGAGAAA,-1.08
21,CCAGTGACTATCTGCTACTTAAGATAGAGG,-0.542
22,TAAGATCCAAAGGAGTGGTCCTGCTCAAAG,-1.03
23,CATGATTGTGGAGGATGGGAAGTCCAAAGT,3.32
24,TTGTATAGCATGAACTACACAGATTCTGCA,-1.07
25,GTGGTGTAGAGGCCCTGCAGGGCCCCACAT,-0.915

row,Sequence,binding signal (log2 normalized intensity)
1,TTACACCTGTGTGTACTGGGCAGATAACAG,0.585
2,AACTGACCTTGCAGGCCAGGGAGTGCAGCT,-0.889
3,ACTGAAAGAACACAGCGCAGCACACTGCAG,-1.11
4,ACATTTCCTTTTTGGCCAGCCCCGGGAATT,1.65
5,AAATAGAGCAGCCTGGGGTAAAACCAAACT,-1.12
6,GATGGGTCCACACAGCTGAATCCAAAGGTC,5.87
7,CTCATAAGAGACTTTGCCCTTTTTTTCTCT,3.96
8,AGACAGCCACTGTTTGACGACTGTCTGCCA,-1.15
9,GTGTGTGTGTGTGTGTGGTGTGTGTGTGTG,3.59
10,ACCAGGGCTAGACCCGTCAGCCCTGGTCCA,-1.1
11,CTTCGATCACCTCAAGAAAGAGGTGGTTCT,-1.09
12,CCTCAAAGAGCATGGCGCCAGGGAGTGATT,-0.487
13,TTTGTGGGCCAAAAGCAGCCATTAAGAAGC,-0.486
14,GCCCTTTGTATCTTTTAAGATACACTCTTT,2.22
15,GAGGCACCCATCCCTTTGCAATAAAAGATT,0.089
16,AATGACCTTTGTCCAGCTGTGCCGAGCCTG,4.02
17,GCAGTGACCAAGGGTCAGTTTGAAATTAGG,2.2
18,CCAAAGTCTATGTGTGCTTTCTTCATTAAC,1.5
19,AGGCCAATGAGGGAAGTTATTAACATCAAA,-1.12
20,GGGAACCGGCAAGTCTGAAATCTACAGGAC,-1.02
21,GCTCCAGAGGAAGATATTATCTCTGTCTGT,-0.852
22,CTGAGCAGGAATGTTTCCTCTCCCAGCCCC,3.24
23,GGGTTAAAAGCAAACCAAAAAGTTGGTTGG,-0.748
24,GCTAGGTGGCGGGCTGGCTCAGGACAGGTG,0.0816
25,GACCTCCACTTTGGAGGGGGAATTTATTTT,-1.03

row,Sequence,binding signal (log2 normalized intensity)
1,GTGGAAGGATCACCTGAGTCCAGAGGTCAA,4.66
2,TTCCTGTCACAAGAGATAAAGCTCTTTGTC,-0.56
3,AGTCAGTTGCATGCAACCTTTGTCCTCATT,5.64
4,GGGATCCAGGTGCAAAGTACTTCCGATCTC,0.39
5,AGCCAACCAGAGGCTGAAGTGAAGTTACAA,-0.787
6,TCTCCAGGGTCCTTGCCTTAAGAGCAGTCT,-0.46
7,AATTCATCTCTAAGCTACTGAAAATGACCT,3.39
8,TAAGATAAGGAGGTAGAGTCTAAGGCTAAA,-1.02
9,GCCTTGGGCAAGTTACTTAAGCCATCTGCT,-1.15
10,TCTCCTGCATTCCTGTCCACCCTGAAAGAG,-0.0187
11,ACAGTAGACTTTTTTTTTCTTAATTGCCCT,2.84
12,TGGGGGAGGTAGGTAAGGACCAGATCATTC,-1.05
13,TAATGTGCCCAAAAGGACACAGGGTCTGTT,-1.13
14,CCCACCCCCACGCCCCCCAGCGGAAGTCCA,6.97
15,CTCTCAAAAATCTCACTCACCCTAAGCCCT,2.79
16,GCTTGAGCGAGACAGCGGGTGTTTCTGGGA,0.386
17,AAAAAGACGCGGTCTCAGTTAACGGGGACG,-1.11
18,CAGAGAGATACTGAACCTTGCACTATTGAC,2.89
19,TTCCCCAGCGACTGAGCTGAGGTTAGAATC,-0.674
20,CTGTTTTACTGGGGCCCATTGTATGAGGGT,1.39
21,GATCCAAAAGACCCAGGTGTGTTGCAACTT,0.84
22,CTGCAGTCAGGGGTTAGGCCTGGAACCTGT,0.864
23,ATCAAAGGTCAAAATATCTGATCGATATCC,2.68
24,GGCATATCTCTGTCCCTGATACCATTATCT,0.312
25,TTTAGGAAGAGATCAAAGTTCTGTTTGTAT,2.65

row,Sequence,binding signal (log2 normalized intensity)
1,CAGCTGGTCACACTGCACCTGCCTGAACAA,-1.2
2,GGAAGATAAGCTATTATTTACATTGTTGGG,0.24
3,CGGTCCTCGCTCGCCCGAGCGCTGCTTCTC,-1.23
4,TGAGACTCAAGGCAAGTTGCTTCCACCTAT,-1.1
5,ATCTGGTGGTGGTTCTTGTTTCATTGCACA,1.84
6,CTTGGCCTGCATAGCACTTTCATAACTTCT,0.474
7,AGGTCAGAGTTGAACCCTTGGGGCTTTTGC,1.98
8,AGATACAGTTTGAAAAACACTGGATAAAGT,-0.736
9,ATACAGATTTCATCTAAGGACAAACTTTGT,1.84
10,AATTGGGGGAGAGTTTAAGGTTGTACTTTG,3.4
11,CTACAGTCCTGCCACATCCCCCACACCGAG,4.36
12,AGATGGAATGTTGTGTCTTCCAGTTCATTT,1.33
13,TTGCAGACCTTGGTCAAAGTGACACATTCC,-0.628
14,GGGAAGGCAGGTCTCTCTCATTCACACCCT,-1.05
15,GTTAAAGTTGCCTGATGACAACTGAATGTG,0.26
16,GTCATCAGATAGATGGTCAGTGAACTGTGG,1.65
17,TGGAATGCTTTTCTAGAACCAGGAATCCTA,-1.02
18,TCTTGGACTCTTGGACTCCCTGAAGAAACA,3.82
19,AAGGGCTGAGGTTAAAGTCCACATTCTTTA,5.76
20,CAAGTTATCTCGGGGTGGCATGTATCTGAT,1.6
21,CTTGCTGCATTCCCCCACCTACTGTCTCCT,2.9
22,GTAACCTCAAAGGAGGTCAGAACTGTGGAC,1.22
23,CTTCTTGGATGCCCTTCCCTAACCCTTCAA,2.5
24,GTGAGGGAGGAGACTTTGACCTCTGCTAGG,5.43
25,TCAGATGAACTTTGCCTTAGGCCATTGTCC,3.25

row,Sequence,binding signal (log2 normalized intensity)
1,TTCTTGGTGGAAGTGGTGATTTCGTTGAAA,0.929
2,TTGTGGAGGATGGGAAGTCCAAAGTCTGCA,4.39
3,AGATATCAGAAATGCATGAGTGACCTTTAT,4.97
4,GGGGGCCAGTTCACTCAGTCCACATGGTGT,0.451
5,CATTCCCCAGGCAATCTTCCAGTCCACAGT,1.39
6,GAGGGTTCTCACTCCTCTATCAGTACAAAT,0.701
7,CCCCTCGGCCGCTCCCTCCCCTCCTCCCTT,5.35
8,TCTTGGAAACATTTTACTCACCCCTTGCTG,2.06
9,CATTGCTGACCTTGCCTCTGTGCTCCCAGT,-0.0996
10,GAATTTTGTGCAATTACACAACTTCCTTCA,-0.938
11,TCTGTGTGGTAAAAGCACTGAACCCTGTTT,2.07
12,ACAAACACAGAAGTGGACCTTCACCAGATA,1.62
13,CCCAGAAGAATGGGCAGAAGTAGGATAAGG,-1.21
14,TGTTCTAATGAGGCCACTCCTGATAGCTAG,-0.544
15,CAGACACACAATATTATGTTTTGTTATCTG,0.956
16,GGTTGCCCTAGTGACTCTAGGAACCTTTCT,-0.0376
17,AGCCCAAGGCAAAGCAGATGTGCTAACACT,-1.17
18,TGGTCAATATCCACACAAACCCAGTTTGCA,-1.06
19,GGATACCTAAGCCCCATGCTGATAAGGGCC,-1.11
20,AGAGAAAAATCTTCAAACAACCCTTCGCTA,-1.15
21,TGGCATTTGAGACTAGCCACAATAGGCCCT,-0.945
22,CCAATTCACAGAACTCCCTAAGTGGCCTCA,-0.276
23,AACTTTGCAGCAGATAATTACCTGGACTCT,3.6
24,AAGAGTTAAAAAAAAAAAAAACTATCAAAC,-1.07
25,GTAGATTAAATCCTCGAAGAGTTTGAACTA,0.864

row,Sequence,binding signal (log2 normalized intensity)
1,CCGGACATGGAGAGGTGAGACACGTGTGCC,-0.117
2,TTTGATCCTGATGACTGCAGAGCTTGCTCT,-0.687
3,TTATTAGTCCAAGAGATTTCTACAGATAGC,-1.08
4,TACACACATTCCAATCTTCTTTTCCAGTCT,1.44
5,CTGGAATCACGTTCGCCTAATTTGAAGCAT,-0.886
6,CTATCTTATCTGGGCCAGGTATTTGGACTT,4.29
7,TAGAACAAAGATCAAAGCAGTATCATCAAC,-1.11
8,TTCCATAGATAAGAGCTGAGGAAGTGCTGA,-1.12
9,TTCCTCCTGGCCTCTCTGAGCAGCCTTCCC,-1.09
10,CCTCTGAAAGCACTTGTAGGCCTGTGTGCA,1.09
11,TTTCAGATGGACCAAAGGTCTTGTACAAAG,2.29
12,CCACCAAGGACTGGACCACCTCCTCAAAGA,-1.06
13,AGCTGCTGGCAGGAATTTTAAAAGTATACT,-1.09
14,AGTCCATTCCTTGGACTCTGCCACTGGTTT,2.87
15,AGGAGGAGACAGACTTATCGGGTAGGCAAG,-0.985
16,CAAGGTCCAGGAGGTCGCTGGAAAGGCGGC,-0.494
17,CTGCTTTTGGAATTTGACCTCATTTGCTCC,5.7
18,AGCTTTGATAGTCTGCTACCATCAGATAAG,-1.13
19,CTGAGCCAGCACTTCGACCTCACATTGTAG,1.68
20,TCATTACTGACAGAGATCAAAAACCAAAGC,-1.13

# From publication PMC10726135
